Data reported in paper doi:10.1101/2023.08.01.549180.

Experiments:
[1] = molecular target: 2dV-Camuiα (rat) (UniProt P11275); test: SEC
[2] = molecular target: Green-Camuiα (rat) (UniProt P11275); test: SEC

| Substance | stoichiometry N [1] | stoichiometry N [2] |
| --- | --- | --- |
| 2dV-Camuiα (a stretch of the chain, chain not printed) (natural protein; other documents disagree on this pair) | 12 | – |
| Green-Camuiα (a stretch of the chain, chain not printed) (natural protein; other documents disagree on this pair) | – | 12 |
